Among all 310,000 compounds or so, about 14,000 (4.5%) showed an effect of 50% or more. Effects have a minus sign here. This is one part of the list.
Biological target: human ether-à-go-go-related gene (hERG) potassium channel (human, UniProt Q12809)
Experiment: primary screen, population patch clamp on CHO cells stably expressing hERG
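Note: peak tail current of the secondary pulse compared with the same well before compound.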

Chain of human ether-à-go-go-related gene (hERG) potassium channel (Q12809 whole entry, looked up): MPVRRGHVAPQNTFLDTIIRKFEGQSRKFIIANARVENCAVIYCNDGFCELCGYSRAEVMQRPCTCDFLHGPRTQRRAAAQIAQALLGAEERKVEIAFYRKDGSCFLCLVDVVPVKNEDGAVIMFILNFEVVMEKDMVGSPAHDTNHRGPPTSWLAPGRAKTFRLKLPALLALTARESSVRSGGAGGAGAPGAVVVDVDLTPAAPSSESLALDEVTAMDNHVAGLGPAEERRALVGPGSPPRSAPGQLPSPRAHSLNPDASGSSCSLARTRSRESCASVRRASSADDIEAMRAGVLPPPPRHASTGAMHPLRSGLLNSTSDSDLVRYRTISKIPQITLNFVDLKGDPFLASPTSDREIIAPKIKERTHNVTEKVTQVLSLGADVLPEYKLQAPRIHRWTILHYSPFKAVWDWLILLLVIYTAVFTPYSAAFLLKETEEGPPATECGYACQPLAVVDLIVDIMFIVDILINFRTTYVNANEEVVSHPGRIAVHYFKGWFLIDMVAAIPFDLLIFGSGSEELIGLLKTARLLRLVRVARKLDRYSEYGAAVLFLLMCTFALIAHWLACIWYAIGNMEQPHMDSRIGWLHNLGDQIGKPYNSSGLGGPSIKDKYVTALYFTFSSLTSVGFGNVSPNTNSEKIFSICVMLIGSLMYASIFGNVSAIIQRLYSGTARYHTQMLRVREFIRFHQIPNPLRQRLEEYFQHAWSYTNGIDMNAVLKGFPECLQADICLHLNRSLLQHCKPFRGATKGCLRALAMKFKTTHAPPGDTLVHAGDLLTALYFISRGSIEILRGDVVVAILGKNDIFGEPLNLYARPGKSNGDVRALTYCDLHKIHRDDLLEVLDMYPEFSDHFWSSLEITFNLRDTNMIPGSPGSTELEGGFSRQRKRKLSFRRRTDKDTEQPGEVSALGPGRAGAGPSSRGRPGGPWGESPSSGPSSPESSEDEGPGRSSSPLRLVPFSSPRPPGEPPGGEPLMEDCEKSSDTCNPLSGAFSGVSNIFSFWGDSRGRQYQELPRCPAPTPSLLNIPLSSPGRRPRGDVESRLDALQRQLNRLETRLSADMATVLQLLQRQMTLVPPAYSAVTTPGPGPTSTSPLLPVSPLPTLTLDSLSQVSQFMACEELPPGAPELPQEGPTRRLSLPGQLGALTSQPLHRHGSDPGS

SMILES | hERG current change (%, negative = inhibition) at 10uM [%]
O=C(O)c1cccc(NC(=O)c2ccc3c(c2)C(=O)N(Cc2ccco2)C3=O)c1 | 16.3
CCC(C)NS(=O)(=O)c1ccc(S(=O)(=O)N2CCCC3(CCCCC3)C2)cc1 (stereo not shown) | -5.74
COc1ccccc1-c1cc(-c2ccccc2)nc(=O)[nH]1 | 5.68
COc1ccc(S(=O)(=O)n2nc(OC(=O)c3ccco3)cc2N)cc1 | -0.725
Cc1ccc(OCC(=O)Nc2ccc(CN3CCOCC3)cc2)cc1C | -39.3
O=C(O)C(=O)O.c1ccc2c(c1)CCN(C1CCCCC1)C2 | 3.82
CCOC(=O)c1c(Cc2ccccc2)c[nH]c1C | 24.5
CC(=O)c1cccc(CN2CCCCC2C(=O)Nc2ccc(Oc3ccccc3)nc2)c1 (stereo not shown) | -28.7
O=S(=O)(c1ccc(F)cc1)N1CCCN(c2nccc(C(F)(F)F)n2)CC1 | -0.763
COc1ccc(CNn2cnnc2)c(O)c1 | 15.9
COc1ccc(-n2c(SCC(=O)Nc3ccc(NC(C)=O)cc3)nc3ccccc3c2=O)cc1 | 17.3
CCCCOc1ccccc1NC(=O)c1ccco1 | -12.5
N#Cc1ccc(-c2ccc(Cl)cc2)nc1Oc1ccc(F)cc1 | 5.57
Cc1cccc(CSc2ccc3nnc(-c4cccs4)n3n2)c1 | 17.9
O=C(Oc1ccccc1Cl)c1ccc(-n2cncn2)nc1 | 23.8
O=C(Nc1nnc(C2=COCCO2)o1)c1ccc(S(=O)(=O)N2CCCCC2)cc1 | 18.7
CCCCN(CC)S(=O)(=O)c1ccc(C(=O)N=c2sc3cc(NC(C)=O)ccc3n2C)cc1 | 9.43
COc1ccc(NC(=S)NC(NC(=O)C(C)C)C(Cl)(Cl)Cl)c([N+](=O)[O-])c1 (stereo not shown) | 3.64
CC(C)n1c(SCC(=O)Nc2nc3c(s2)CCCC3)nc2c1c(=O)n(C)c(=O)n2C | -59.2
COc1ccc(-c2noc(CN(C)Cc3ccccc3)n2)c(OC)c1OC | 9.23
NC(=O)c1ccc[n+](CC(=O)c2ccc(Br)cc2)c1.[Br-] | 10.3
Cc1cc(Cl)c2oc(C(=O)N3CCN(C(=O)c4ccco4)CC3)c(C)c2c1 | -53.9

SMILES | hERG current change (%, negative = inhibition) at 10uM [%]
CCN(CC(=O)Nc1ccc(C)c(S(=O)(=O)N(C)C)c1)Cc1ccccc1.O=C(O)C(=O)O | -25.1
CC(=O)c1c(C)nn(C(=O)N2CCOCC2)c1C | 0.531
COc1ccc(CCN2CC(C(=O)NCCc3ccccc3)CC2=O)cc1OC (stereo not shown) | 15.5
Cc1cc(OC(C)C(=O)NCc2ccncc2)c2c(C)cc(=O)oc2c1 (stereo not shown) | -49.2
Cc1ccccc1N1CCN(C2CCCN(C(=O)CCN3CCCCO3)C2)CC1 (stereo not shown) | -18.7
Cc1nc(NC(=O)CC(C)C)sc1-c1csc(Nc2ccc(Cl)cc2Cl)n1 | 4.74
Cc1ccc(CN(C)C(=O)COc2ccc(S(=O)(=O)N3CCCC3)cc2[N+](=O)[O-])c(C)c1 | -9
CCc1ccc2[nH]c(=O)c(CN(Cc3ccco3)C(=S)NCC3CCCO3)cc2c1 (stereo not shown) | -19
C=CCNc1nc(NCc2ccco2)nc(OCC)n1 | -12.7
CC1CCCC(NC(=O)CCCn2c(=O)[nH]c3cc(Cl)ccc3c2=O)C1C (stereo not shown) | 3.76
Cc1cc(N(CCCl)CCCl)ccc1/C=N/N=C(\N)c1cnccn1 | -4.21
Cc1cc(C)n2nc(SCC(=O)N(CCC#N)c3ccc(F)cc3)nc2n1 | -19.2
CC1CN(C(=O)CCS(=O)(=O)c2ccccc2)CC(C)O1 (stereo not shown) | 27.1
CCNC(=O)COC(=O)CCNC(=O)c1cccc(C)c1 | 5.34
O=C(NCCN1CCCCCC1)C1CCC(CNS(=O)(=O)c2cccc3cccnc23)CC1 (stereo not shown) | -7.32
CC(O)c1nc2ccccc2n1C(C)c1ccccc1 (stereo not shown) | 16.8
COc1cc(C(C(=O)NCc2ccccc2)N(C(=O)c2snc(C(N)=O)c2N)C2CCCC2)cc(OC)c1OC (stereo not shown) | -27.3
O=C(O)c1ccccc1-c1cn2cc(Cl)ccc2n1 | 25
O=C(/C=C/c1ccccc1)N1CCN(CCN2C(=O)c3cccc4cccc(c34)C2=O)CC1 | -47.7
Cc1ccc(OCCCCN2CCc3ccccc3C2)c(C)c1.Cl | -34.1
N#C/C(=C\c1cn(CCOc2ccccc2)c2ccccc12)C(=O)NCC1CCCO1 (stereo not shown) | -11.7

Source: paper PMC4336329 (PLoS ONE, 2015)
